110 sequences from the supplement of paper PMC3334620 can be followed below.

The full ranking holds about 33,000 sequences; the median of “E-score (-0.5 to 0.5)” is about -0.016, and the highest 2% start at about 0.32. This is one part of the list.

The target in this assay is T1, Stp1 (UniProt B3LFK1).
T1 sequence: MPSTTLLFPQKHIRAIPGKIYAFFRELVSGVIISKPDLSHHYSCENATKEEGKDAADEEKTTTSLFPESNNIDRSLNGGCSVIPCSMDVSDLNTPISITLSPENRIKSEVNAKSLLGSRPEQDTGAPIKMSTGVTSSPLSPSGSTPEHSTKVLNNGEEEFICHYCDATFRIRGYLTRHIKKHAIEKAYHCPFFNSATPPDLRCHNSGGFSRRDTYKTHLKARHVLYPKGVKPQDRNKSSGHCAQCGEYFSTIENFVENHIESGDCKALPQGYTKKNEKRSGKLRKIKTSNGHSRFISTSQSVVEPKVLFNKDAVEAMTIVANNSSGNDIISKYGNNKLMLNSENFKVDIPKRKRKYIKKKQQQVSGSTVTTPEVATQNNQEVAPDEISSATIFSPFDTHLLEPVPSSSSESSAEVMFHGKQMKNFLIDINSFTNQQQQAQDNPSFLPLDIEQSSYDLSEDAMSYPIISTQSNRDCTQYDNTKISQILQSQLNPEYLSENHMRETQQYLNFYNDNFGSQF
Put plainly: PBM E-score (8-mer binding enrichment) (E-score (-0.5 to 0.5)); higher = stronger / more preferred TF binding; most listed sequences are background and not binding sites. Conditions: protein concentration: 200 nM; construct: GST-full length. In a few lines:
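Detection of bound protein used fluorescent anti-GST, with scans normalised by masliner. The proteins were GST-tagged yeast transcription factors applied at about 100-200 nM to universal all-10-mer Agilent arrays made double-stranded by primer extension. Each ungapped eight-base word, pooled with its reverse complement, was scored with an E-score from the Universal PBM Analysis Suite.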
With ATCTCCAT, the “PBM E-score” value is -0.0369.

In the case of AATTTGAG, the “PBM E-score” value was determined as 0.0102.

For the sequence GGACTGAC, the “PBM E-score” value is -0.21.

As for AATCAGAA, the “PBM E-score” value turned out to be 0.00145.

For CACTGTCG, the “PBM E-score” value is -0.188.

Regarding GGCCAGCC, the “PBM E-score” value is -0.251.

For the sequence CGAAGGAC, the “PBM E-score” value is -0.0962.

In the case of ACAAGCTC, the “PBM E-score” value is -0.218.

With ACCCCCCG, the “PBM E-score” value is -0.334.

Turning to ACTATTTC, the “PBM E-score” value worked out at 0.0777.

As to GACTAGTA, the “PBM E-score” value came to 0.0942.

As to CCGTTTCG, the “PBM E-score” value is 0.255.

Consider AATTCGAC, for which the “PBM E-score” value was -0.244.

On to ACAGTTCG, for which the “PBM E-score” value is 0.193.

As to CGCACCGA, the “PBM E-score” value stood at 0.0478.

Take GATATCAC: the “PBM E-score” value was -0.0115.

For the sequence CGTTGCAC, the “PBM E-score” value amounted to 0.13.

Take CCACTGAC: the “PBM E-score” value amounted to 0.0351.

Regarding TGGACAAA, the “PBM E-score” value is -0.0269.

As for CTCTGGGC, the “PBM E-score” value was -0.215.

GCCTTAAC: the “PBM E-score” value was -0.0752.

Turning to CCTGTAGC, the “PBM E-score” value was -0.169.

Regarding TACGATGA, the “PBM E-score” value was -0.0581.

Consider ACCCTACC, for which the “PBM E-score” value is -0.119.

As to CTTGTGCA, the “PBM E-score” value worked out at 0.141.

Regarding AGAGCGTA, the “PBM E-score” value is -0.122.

For CGACGCGC, the “PBM E-score” value was determined as 0.199.

On to TATCATAA, for which the “PBM E-score” value was 0.113.

For the sequence CGAACCGC, the “PBM E-score” value worked out at 0.0548.

As to AGTGAGCA, the “PBM E-score” value is -0.269.

For ATCGAGAG, the “PBM E-score” value was -0.151.

In the case of AATGACGC, the “PBM E-score” value stood at 0.09.

As to GACGCGCA, the “PBM E-score” value is -0.105.

For the sequence AACCGGGG, the “PBM E-score” value was -0.218.

As for AACACCGG, the “PBM E-score” value is -0.0221.

As for CGAGGCGC, the “PBM E-score” value is 0.456.

Turning to AGGGGTAA, the “PBM E-score” value is -0.24.

As to AAGATGGT, the “PBM E-score” value is -0.0801.

Take ACAGGACT: the “PBM E-score” value was -0.213.

Take GATCAGGA: the “PBM E-score” value was -0.0559.

For GATAGATA, the “PBM E-score” value is -0.0169.

Turning to CTCCACCC, the “PBM E-score” value is -0.193.

With ACATATAG, the “PBM E-score” value worked out at 0.153.

Regarding AAGGAACT, the “PBM E-score” value is -0.0685.

For the sequence TGTGAAAA, the “PBM E-score” value was 0.0323.

For the sequence CGAATTGA, the “PBM E-score” value is -0.0676.

GATTGCAC: the “PBM E-score” value stood at 0.0784.

Regarding AAACGACA, the “PBM E-score” value was 0.167.

Take AGTATTGA: the “PBM E-score” value amounted to 0.0696.

Consider CCTCTGCG, for which the “PBM E-score” value is -0.205.

Turning to ACGTAAAG, the “PBM E-score” value was -0.00101.

For the sequence AGATCTGA, the “PBM E-score” value was -0.126.

On to CCTAGTCC, for which the “PBM E-score” value is -0.292.

On to TCTGTACA, for which the “PBM E-score” value came out at 0.112.

Consider CGCGTGTA, for which the “PBM E-score” value stood at 0.11.

With CGATTTTC, the “PBM E-score” value was found to be 0.175.

On to ACGCGTCG, for which the “PBM E-score” value was found to be 0.166.

As to AGCTACGA, the “PBM E-score” value was -0.0885.

On to CATTCTCC, for which the “PBM E-score” value was -0.0271.

In the case of ACGATGTG, the “PBM E-score” value came to 0.101.

Turning to TCCTTCAA, the “PBM E-score” value is -0.18.

Regarding TCCATCCA, the “PBM E-score” value was -0.172.

With GTCGCTCA, the “PBM E-score” value was -0.108.

Regarding CTCAGCCC, the “PBM E-score” value is -0.353.

AAGGCGGG: the “PBM E-score” value is -0.112.

Turning to ACCGCAAG, the “PBM E-score” value was 0.0229.

In the case of CTTTGTCA, the “PBM E-score” value was 0.129.

Regarding TCGCTTCA, the “PBM E-score” value worked out at 0.00501.

As to GGCAGACA, the “PBM E-score” value is -0.0599.

With GCCCCAAA, the “PBM E-score” value is -0.0406.

Consider GCGCTTCC, for which the “PBM E-score” value came out at 0.111.

On to GCTTGAAA, for which the “PBM E-score” value is 0.0513.

For ATAACGTC, the “PBM E-score” value is -0.0778.

In the case of AATACACC, the “PBM E-score” value came to 0.116.

For the sequence CGACCTAG, the “PBM E-score” value was -0.0414.

Regarding AGACTTCC, the “PBM E-score” value is -0.284.

Regarding GATCATAC, the “PBM E-score” value was 0.0959.

As to AGGAATGG, the “PBM E-score” value was -0.0542.

On to ATCTGAGA, for which the “PBM E-score” value is -0.0556.

Take CACATATC: the “PBM E-score” value was found to be 0.0808.

Regarding GATGACCA, the “PBM E-score” value is -0.0425.

With ATTCTACC, the “PBM E-score” value is 0.0795.

As for ACGTCCTC, the “PBM E-score” value was -0.23.

For the sequence AGATACGC, the “PBM E-score” value came to 0.128.

In the case of CAAAATAA, the “PBM E-score” value came out at 0.155.

On to ACTTTATA, for which the “PBM E-score” value was determined as 0.213.

Take CAGGGTGG: the “PBM E-score” value was -0.205.

As to CTGTTGAC, the “PBM E-score” value was -0.102.

Regarding ACATGTGA, the “PBM E-score” value is -0.00447.

With CGACTGGC, the “PBM E-score” value was found to be 0.0517.

Take ATACAAGC: the “PBM E-score” value was found to be 0.00117.

In the case of AGCATAAC, the “PBM E-score” value worked out at 0.0775.

GCTCGGTA: the “PBM E-score” value was 0.0377.

For TACGGATA, the “PBM E-score” value worked out at 0.189.

On to GTCAGGGA, for which the “PBM E-score” value was -0.292.

In the case of ATGTTCGA, the “PBM E-score” value was -0.0276.

ATTGACTC: the “PBM E-score” value is -0.142.

For the sequence CGCAACGC, the “PBM E-score” value is 0.257.

Consider GCGCACAC, for which the “PBM E-score” value is -0.0434.

In the case of CAGATTTC, the “PBM E-score” value stood at 0.138.

As to GAGCACCC, the “PBM E-score” value was -0.22.

As to CAAGTCAC, the “PBM E-score” value is -0.0456.

Turning to GGGGATAC, the “PBM E-score” value is -0.231.

On to ACAGTTTA, for which the “PBM E-score” value was 0.0351.

Take AATGAAGG: the “PBM E-score” value stood at 0.067.

As to AGTCAAAG, the “PBM E-score” value is -0.111.

For ACGCACAA, the “PBM E-score” value is -0.0586.

Turning to ACGTGCCC, the “PBM E-score” value was 0.18.

For GCCGCCCA, the “PBM E-score” value came to 0.111.

Turning to GACTGCCA, the “PBM E-score” value is -0.0407.
